About 14,000 (4.5%) of roughly 310,000 compounds showed an effect of 50% or more. The effect is printed as a negative number. This is one part of the list.
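Note: peak tail current of the secondary pulse compared with the same well before compound.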

Chain of human ether-à-go-go-related gene (hERG) potassium channel (Q12809 whole entry, looked up): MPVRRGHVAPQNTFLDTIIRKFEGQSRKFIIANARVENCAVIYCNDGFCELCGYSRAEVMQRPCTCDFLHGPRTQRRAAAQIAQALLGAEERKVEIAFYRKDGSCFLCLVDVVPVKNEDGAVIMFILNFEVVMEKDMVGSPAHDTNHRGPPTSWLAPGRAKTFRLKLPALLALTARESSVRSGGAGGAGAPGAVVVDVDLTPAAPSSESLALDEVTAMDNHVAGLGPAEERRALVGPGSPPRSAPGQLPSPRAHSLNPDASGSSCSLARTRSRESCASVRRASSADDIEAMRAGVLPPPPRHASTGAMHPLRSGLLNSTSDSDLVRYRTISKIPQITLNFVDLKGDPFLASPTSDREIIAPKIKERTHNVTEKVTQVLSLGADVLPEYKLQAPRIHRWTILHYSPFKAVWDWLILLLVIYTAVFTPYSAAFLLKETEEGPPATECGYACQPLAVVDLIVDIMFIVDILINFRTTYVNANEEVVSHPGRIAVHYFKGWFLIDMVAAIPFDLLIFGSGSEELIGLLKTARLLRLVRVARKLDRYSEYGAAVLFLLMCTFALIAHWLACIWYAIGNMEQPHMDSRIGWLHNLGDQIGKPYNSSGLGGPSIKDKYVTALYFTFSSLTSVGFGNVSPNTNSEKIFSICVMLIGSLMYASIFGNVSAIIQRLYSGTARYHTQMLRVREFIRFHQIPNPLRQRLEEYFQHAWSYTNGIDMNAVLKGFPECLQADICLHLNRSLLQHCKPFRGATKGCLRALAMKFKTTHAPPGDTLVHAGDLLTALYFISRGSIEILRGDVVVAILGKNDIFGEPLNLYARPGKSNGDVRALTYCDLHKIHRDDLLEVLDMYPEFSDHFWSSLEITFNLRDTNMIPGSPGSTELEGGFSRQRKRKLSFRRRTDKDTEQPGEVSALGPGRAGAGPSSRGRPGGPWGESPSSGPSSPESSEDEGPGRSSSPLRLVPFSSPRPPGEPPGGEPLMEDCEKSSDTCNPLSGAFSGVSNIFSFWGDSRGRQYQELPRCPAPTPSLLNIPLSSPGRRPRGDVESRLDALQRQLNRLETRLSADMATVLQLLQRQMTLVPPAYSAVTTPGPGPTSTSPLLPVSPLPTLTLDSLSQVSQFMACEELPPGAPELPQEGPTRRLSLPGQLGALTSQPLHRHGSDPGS

The experiment addresses human ether-à-go-go-related gene (hERG) potassium channel (human, UniProt Q12809). Briefly: primary screen, population patch clamp on CHO cells stably expressing hERG.
With `OCC1(Cc2ccc(Cl)cc2)CCN(CC2CC=CCC2)CC1` (stereo not shown), the “hERG current change (%, negative = inhibition) at 10uM” value is -76.7%.
Regarding `O=C(NCCC1=CCCCC1)C1CCC(=O)N(Cc2ccc(Cl)cc2)C1` (stereo not shown), the “hERG current change (%, negative = inhibition) at 10uM” value was -2.34%.
For the molecule `NC(=O)CCC(=O)N1CCCC(C(=O)c2ccc(C(F)(F)F)cc2)C1` (stereo not shown), the “hERG current change (%, negative = inhibition) at 10uM” value turned out to be 1%.
Then `CCC(CC)c1nnc(NC(=O)CN2C(=O)NC3(CCCC3)C2=O)s1`, with 36.8%; and `COc1cccc(C(C)NC(=O)C2CCCO2)c1` (stereo not shown), with 5.03%; and `Cc1ccc(-n2nnnc2SCC(=O)NNC(=O)c2ccc([N+](=O)[O-])cc2)cc1`, with 3.99%.
In the case of `CC(C)Oc1ccc(Cn2c(=O)oc3ccccc32)cc1`, the “hERG current change (%, negative = inhibition) at 10uM” value was 20.4%.
Consider `COc1cc(C#Cc2ccc3cc(CCCO)oc(=O)c3c2)cc(OC)c1`, for which the “hERG current change (%, negative = inhibition) at 10uM” value amounted to 7.23%.
As for `O=C(c1ccc(N2CCN(C(=O)c3ccccc3)CC2)cc1)c1cccc(F)c1`, the “hERG current change (%, negative = inhibition) at 10uM” value is recorded as -74.5%.
The result for `COc1ccc(/C=C/C(=O)c2c(O)n(CCC3=CCCCC3)c(=O)[nH]c2=O)cc1` reads 5.59%.
Regarding `O=C(NNc1nc2cc3c(cc2s1)OCO3)c1ccccc1`, the “hERG current change (%, negative = inhibition) at 10uM” value is on record as 4.16%.
On to `Cc1ccc(C(=O)Nc2ccccc2C(=O)N2CC3(C)CC2CC(C)(C)C3)cc1` (stereo not shown), for which the “hERG current change (%, negative = inhibition) at 10uM” value is -28.7%.
For `Cc1ccc(Oc2nc3ccccn3c(=O)c2/C=C(\C#N)C(=O)NC2CCS(=O)(=O)C2)cc1` (stereo not shown), the “hERG current change (%, negative = inhibition) at 10uM” value is given as -6.31%.
The result for `O=C(COC(=O)c1cncc(Br)c1)NC1CC1` reads 2.81%; that for `Cc1cc(C)c(S(=O)(=O)N(C)CC(=O)NCCCn2ccnc2)c(C)c1`, -19.9%; that for `COc1cccc(/C=N/NC(=O)c2ccoc2C)c1O`, -12.4%.
For the molecule `COc1ccc2cc(-c3ccsc3)ncc2c1`, the “hERG current change (%, negative = inhibition) at 10uM” value amounted to 9.17%.
On to `Cn1c2c(c(=O)n(C)c1=O)C(CC(=O)Nc1ccccc1)C(=O)N2` (stereo not shown), for which the “hERG current change (%, negative = inhibition) at 10uM” value is 2.49%.
The result for `CCc1nn(CC(=O)NCCCN(C)Cc2ccccc2)c(=O)c2cc3sc(C)cc3n12` reads -69.9%.
On to `Cc1ccccc1OCC(O)CN1CCC(C)CC1.Cl` (stereo not shown), for which the “hERG current change (%, negative = inhibition) at 10uM” value was -34.1%.
With `CN(C)CCNC(=O)C1(O)c2cc(Br)ccc2NC(=O)N1c1ccc(Cl)cc1` (stereo not shown), the “hERG current change (%, negative = inhibition) at 10uM” value is on record as 12.2%.
As to `C/C(CCc1ccc2c(c1)OCO2)=N\NC(=S)NC(C)C`, the “hERG current change (%, negative = inhibition) at 10uM” value is given as -59.4%.
Regarding `Cc1ccc(NC(=O)C2CCCN2C(=O)NC2CCCCC2)cc1` (stereo not shown), the “hERG current change (%, negative = inhibition) at 10uM” value is listed as 8.72%.
For `Cc1cc(C(=O)NCC(=O)O)c(C)o1`, the “hERG current change (%, negative = inhibition) at 10uM” value was 0.446%.
Then `Cc1ccccc1-c1nnn(CC(=O)N(C)CC(=O)Nc2ccccc2C(F)(F)F)n1`, with -7.48%; and `CC(C)(C)P(=O)(CO)c1ccccc1` (stereo not shown), with 2.45%.
In the case of `Cc1ccc(OCC(=O)c2cc(C)c(C)cc2C)c([N+](=O)[O-])n1`, the “hERG current change (%, negative = inhibition) at 10uM” value is on record as 7.87%.
On to `Cc1ccnc(N(C(=O)Nc2ccccc2)C2=NCC(C)(C)S2)c1`, for which the “hERG current change (%, negative = inhibition) at 10uM” value is recorded as 17.5%.
The result for `CCN1C(=O)C(CC(=O)Nc2ccc(OC)cc2)N(Cc2cccnc2)C1=S` (stereo not shown) reads -2.39%; that for `COc1cccc(C(=O)Nc2ccc3c(c2)OCO3)c1OC`, 12.1%; that for `Cc1nc2ncnn2c(C)c1CCC(=O)NCc1ccc2c(c1)OCO2`, -18.2%.
In the case of `O=C1CCC([N+](=O)[O-])C(c2ccccc2C(F)(F)F)N1` (stereo not shown), the “hERG current change (%, negative = inhibition) at 10uM” value stood at 6.42%.
As for `CCOc1ccccc1C(=O)NCC(=O)NCC(C)(C)N1CCOCC1`, the “hERG current change (%, negative = inhibition) at 10uM” value was -5.64%.
Then `Cc1ncc(CO)c(CO)c1O.Cl`, with 8.03%; and `Fc1ccc(CSc2nc3ncccc3[nH]2)cc1`, with -0.198%.
For `O=C1CCC(=O)N1CNc1cccnc1`, the “hERG current change (%, negative = inhibition) at 10uM” value is -8.73%.
Then `CCOc1ccccc1NC(=O)COC(=O)CNS(=O)(=O)c1ccc(C)cc1`, with 17.8%.
Then `O=C(Cn1c(=O)n(CC(=O)NCc2ccccc2)c2ccccc21)NCc1ccccc1`, with 7.83%; and `Cc1cc(S(=O)(=O)Nc2ccc(N(C)C)cc2)c(C)s1`, with 0.71%; and `N#Cc1ccc(NC(=O)Nc2ccc(Cl)cc2)cc1`, with 10.7%.
The result for `COc1ccccc1C(CNC(=O)C1COc2ccccc2O1)N1CCCC1` (stereo not shown) reads -11%; that for `Cc1cccc(OCc2nc(C#N)c(N3CC(C)CC(C)C3)o2)c1` (stereo not shown), -25.3%.
In the case of `[Cl-].c1ccc(COc2ccc(-c3sc(Nc4ccccc4)n[n+]3-c3ccccc3)cc2)cc1`, the “hERG current change (%, negative = inhibition) at 10uM” value is -43.9%.
Turning to `Cc1ccc(S(=O)(=O)Cc2c(C)noc2C)cc1`, the “hERG current change (%, negative = inhibition) at 10uM” value turned out to be 0.933%.
Then `CCN(CC)C(=O)C1CCC(CNS(=O)(=O)c2cccc3nsnc23)CC1` (stereo not shown), with 2.47%; and `CCNC(=O)c1cc(Cl)ccc1OC`, with -4.12%.
Then `Cl.Clc1ccc(CNCCC2=CCCCC2)cc1`, with -40%.
Take `CCN1CCN(C(=O)C2CCC(CNS(=O)(=O)c3ccc(NC(C)=O)cc3)CC2)CC1` (stereo not shown): the “hERG current change (%, negative = inhibition) at 10uM” value is recorded as 23.6%.
As for `Cc1ccc(/C=C(\C#N)C(=O)NCc2ccco2)o1`, the “hERG current change (%, negative = inhibition) at 10uM” value was determined as 3.84%.
As to `CCOc1ccc(N2CC(C(=O)Nc3ccccc3C(=O)N3CCOCC3)CC2=O)cc1` (stereo not shown), the “hERG current change (%, negative = inhibition) at 10uM” value is recorded as 7.52%.
Take `S=C(NCCCN1CCOCC1)N1CCN(c2nc(-c3ccc(Cl)cc3)cs2)CC1`: the “hERG current change (%, negative = inhibition) at 10uM” value is reported as -5.86%.
Turning to `COc1cc2c(cc1OC)C(c1ccccc1)N(C(=O)CCl)CC2` (stereo not shown), the “hERG current change (%, negative = inhibition) at 10uM” value came to 7.27%.
Regarding `O=C(O)C1CCC(NSc2ccccc2[N+](=O)[O-])CC1` (stereo not shown), the “hERG current change (%, negative = inhibition) at 10uM” value stood at 16.3%.
As to `Cn1c2ccccc2c2ncn(Cc3ccc(F)cc3)c(=O)c21`, the “hERG current change (%, negative = inhibition) at 10uM” value was found to be 8%.
With `CC(C)C(=O)Nc1cccc(NC(=O)c2cccc(Br)c2)c1`, the “hERG current change (%, negative = inhibition) at 10uM” value is listed as -52.1%.
The result for `COc1ccc(OC)c(C2=NOC(C(=O)NCc3ccco3)C2)c1` (stereo not shown) reads 6.17%; that for `O=S(=O)(c1cccs1)N1CCN(CCc2ccccc2)CC1`, 18%; that for `Cc1ccc(OCC(=O)NCCC2=CCCCC2)cc1`, -22.4%.
For the molecule `CN(C)Cc1ccccc1Sc1ccc(Br)cc1`, the “hERG current change (%, negative = inhibition) at 10uM” value was -15.6%.
As to `CCCc1n[nH]c2c1C(=O)C(C(=O)OC)C(C)(C)C2` (stereo not shown), the “hERG current change (%, negative = inhibition) at 10uM” value is given as -2.23%.
Then `CCCCOP(=O)(c1ccc(N(C)C)cc1)C(O)c1ccccc1F` (stereo not shown), with -28%; and `COc1ccc(S(=O)(=O)N2CCC(C(=O)NCCC(=O)Nc3cccc(OC)c3)CC2)cc1`, with 7.35%; and `COc1ccc(C(=O)N(C)Cc2ccc(C)o2)cc1OC1CCN(C(C)C)CC1`, with -4.74%.
In the case of `OC(COc1ccccc1)CN1CCN(C(c2ccccc2)c2ccccc2)CC1` (stereo not shown), the “hERG current change (%, negative = inhibition) at 10uM” value is given as -69.6%.
Then `CCn1cc(C(c2ccccc2)C(C(C)=O)[N+](=O)[O-])c2ccccc21` (stereo not shown), with -10.1%.
As for `O=C(COCC(=O)N/N=C/c1ccccc1F)N/N=C/c1ccccc1F`, the “hERG current change (%, negative = inhibition) at 10uM” value is on record as -54.8%.
The result for `CC(=O)Nc1ccc(S(=O)(=O)NNC(=O)COc2cccc(C)c2)cc1` reads 20.9%; that for `Cc1cc2oc(C(=O)N(Cc3cccs3)C3CCS(=O)(=O)C3)cc(=O)c2cc1Cl` (stereo not shown), -22.9%; that for `Cc1ccc(NC(=O)c2cc(S(=O)(=O)N(C)C)ccc2N2CCCC2)cc1F`, -11.8%.
Take `CC(SC1CCCC1)C(=O)Nc1ccnn1C(C)C` (stereo not shown): the “hERG current change (%, negative = inhibition) at 10uM” value turned out to be 3.55%.
Turning to `CC(C(=O)O)n1c2ccccc2c2cnn(C)c(=O)c21` (stereo not shown), the “hERG current change (%, negative = inhibition) at 10uM” value is 18.9%.
As for `Cc1cc(OCC(=O)N2CCC(C(N)=O)CC2)c2c(C)cc(=O)oc2c1`, the “hERG current change (%, negative = inhibition) at 10uM” value was 15.6%.
As for `CCc1nnc(NC(=O)c2oc3cc(C)c(C)cc3c2C)s1`, the “hERG current change (%, negative = inhibition) at 10uM” value stood at 5.05%.
`FCCCOc1ccc(/C=N/OCc2ccc(Cl)cc2Cl)cc1`: the “hERG current change (%, negative = inhibition) at 10uM” value was 6.01%.
Then `Cc1ccc(C)c(S(=O)(=O)N2CCN(C(=O)C3CC3C)CC2)c1` (stereo not shown), with -0.798%; and `O=C(CCN1C(=O)C2CC=CCC2C1=O)N1CCN(c2ccccn2)CC1` (stereo not shown), with 2.5%; and `COC(=O)c1c(NC(=O)CCS(=O)(=O)c2ccccc2)sc2c1CCN(C)C2.Cl`, with -48%.
The result for `O=C(c1cccc(Oc2c(Cl)cccc2[N+](=O)[O-])c1)N1CCOCC1` reads -9.47%; that for `COc1ccc(C(=O)O/N=C/c2ccc(S(=O)c3ccc(Cl)cc3)nc2)cc1` (stereo not shown), 7.36%; that for `CCCNC(=O)N1[C@H]2CC[C@@H]1C(C(=O)OC)=C(c1ccc(C(C)=O)cc1)C2`, 4.58%.
With `CCOC(=O)C1CCCCN1Cc1ccc(C(F)(F)F)cc1` (stereo not shown), the “hERG current change (%, negative = inhibition) at 10uM” value was 7.75%.
Take `O=C1c2cccc3cc(Br)cc(c23)C(=O)N1Nc1ccccc1`: the “hERG current change (%, negative = inhibition) at 10uM” value is on record as 10.3%.
Turning to `O=C(Nc1ccc(Oc2ccccc2)nc1)C1CCCCN1Cc1ccc(OCCO)cc1` (stereo not shown), the “hERG current change (%, negative = inhibition) at 10uM” value was -21.3%.
With `O=C(N/N=C/c1ccc2c(c1)OCO2)c1ccc(NS(=O)(=O)c2cccs2)cc1`, the “hERG current change (%, negative = inhibition) at 10uM” value is reported as 11.1%.
Then `CC1CCCC(n2cnc3cc(C(=O)O)ccc32)C1C` (stereo not shown), with 7.52%.
On to `CCOc1ccc(/C=N/NC(=O)c2ccccc2NC(=O)c2ccc(OC)cc2)cc1`, for which the “hERG current change (%, negative = inhibition) at 10uM” value is 6.3%.
On to `CCOc1ccc2c(c1)C(NC(C)=O)C(=O)N2CCN1CCOCC1.Cl` (stereo not shown), for which the “hERG current change (%, negative = inhibition) at 10uM” value stood at 13.2%.
Regarding `CC1(C)CC(NC(=O)c2ccc(Cl)cc2Cl)CC(C)(C)N1`, the “hERG current change (%, negative = inhibition) at 10uM” value was 2.81%.
As to `CCC(C)N(C(=O)Cn1c(Cl)nc2c1c(=O)n(C)c(=O)n2C)C1CCS(=O)(=O)C1` (stereo not shown), the “hERG current change (%, negative = inhibition) at 10uM” value is -1.18%.
`Cc1ccc2oc(C(=O)NCc3ccc(S(N)(=O)=O)cc3)cc(=O)c2c1`: the “hERG current change (%, negative = inhibition) at 10uM” value is 14.7%.
Then `C/C(=N\NC(=O)c1nnn(-c2nonc2N)c1-c1cccs1)c1ccncc1`, with -2.03%.

These data come from article PMC4336329 (PLoS ONE, 2015).
